Some of the results follow.
B1: chr13:27440139:27440263:-|CDS|ENSG00000122033|unk|FALSE|unique (ssRNA)
RNA: GGGAGUUCUACAGUCCGACGAUCAAUGAAGGAAAAAAGACAAAAAAGAAUAAAACAGCUUUUAGUAACGUUGGAAGAAAAAUUAGUCAGCGAGUUAUUCACUUAUUUGAUGAGAAGGGCAAUGAUUUGGGAAACAUGCACCGACAACAGAGGAUUGAGCAUCA
B2: chr11:111726697:111726798:+|3pUTR|ENSG00000170145|unk|FALSE|unique (ssRNA)
RNA: GGGAGUUCUACAGUCCGACGAUCGGAAGCUUCCAAGCAGUUUUCUCUUCAUCACUACUAACAAACAAAACACUAAGAAGGCUUAGUAUCGCUCUUUUUCUGCGGGGCUACUCUGAAGUACUGACUUGCUUUCCAGUCUGAUUCCAACAGAGGAUUGAGCAUCA
B3: chr10:131092390:131093161:-|three_prime_utr|ENSG00000176769|control|control|control (ssRNA)
RNA: GGGAGUUCUACAGUCCGACGAUCGUGAAUUACUUCGUUUCUCCAGGAUUCCCGCAGUGUUGAGGAAUUCCUUACUCUGUCCCUAGGUCUCAGUCUCGUUUCUGAGUAGCAGCAAUAGGGUUUUCAUCAUUCAUCAUAGUGACACAACAGAGGAUUGAGCAUCA
B4: ENSG00000198589:be:win_551|CDS|ENSG00000198589|bound_else_gene|NA|bound_elsewhere_windowed (ssRNA)
RNA: GGGAGUUCUACAGUCCGACGAUCCUCCACAUGCUGGGAAGUUGCUGUCUGUGUUAAAGCAUAUGCCUCAGAAGUAUGGUCCUGAUGCCUUUUUUAACUUUCCAGGAAAGAGUGCUGCAGCUAUUGCAUUACCUCCUAUAGCCACAACAGAGGAUUGAGCAUCA
B5: chr1:93888438:93888539:-|3pUTR|ENSG00000023909|msi1|total|mutant (ssRNA)
RNA: GGGAGUUCUACAGUCCGACGAUCAGAUAUUUUUCCUGUCAUUGAUGAGAUAUAUCAGAGUAACUGGAGCCGCUGGGAUUUACCCGCCGUGUAAAUAAAAUUCACUCUUCAAUACAUGAAUGGAAACUUAAAUUUUUUUUUAUGCAACAGAGGAUUGAGCAUCA
B6: chr8:41262982:41263083:-|3pUTR|ENSG00000104332|msi1|FALSE|unique (ssRNA)
RNA: GGGAGUUCUACAGUCCGACGAUCCAACCGGGCCCUCUCUCUGCGGCAGAGUCCUUAGUGGAGGGGUUUACCUGGAACAUUAGUAGUUACCACAGAAUACGGAAGAGCAGGUGACUGUGCUGUGCAGCUCUCUAAAUGGGAAUUCAACAGAGGAUUGAGCAUCA
B7: chr4:113382420:113382521:+|3pUTR|ENSG00000145362|msi1|FALSE|bound_elsewhere (ssRNA)
RNA: GGGAGUUCUACAGUCCGACGAUCUCUUCAGGUCUUUAGAUCUUGGACAAGUUGGCAGGGUAUUUUAAAAGCUAUAACUACUGUAGUUUUCCAGUUUUCAUUGCUGCUUUAGCAAACCACGCUGUCUUACAGUGGUACUUUCUUCAACAGAGGAUUGAGCAUCA
B8: chr10:87814449:87814585:-|CDS|ENSG00000138138|unk|total|mutant (ssRNA)
RNA: GGGAGUUCUACAGUCCGACGAUCUUUAAUUUUCCGUUUGACAAUAUUUGGUGCAGUGACAUACUUUACUAUCAAAUGGAUGGCCGAUGCAAUUGAUCCAACCAGAAAGCAAAAAGCCGAAGCUCAGAAACAGGUAUGAUUGAACAACAGAGGAUUGAGCAUCA
B9: chr8:22006149:22006250:+|3pUTR|ENSG00000130227|msi1|FALSE|unique (ssRNA)
RNA: GGGAGUUCUACAGUCCGACGAUCGAAUGUAUGAACUGGAGGAAGUUACUACAGUGGAAGGGUUCUUAAUAACAAGGUCUACCUAGCAUGAAGUAUUUAACAUUCUCCCAUCCCUUAAAAAAUAUACAUUUUUAUAAAAUGAAACAACAGAGGAUUGAGCAUCA
B10: chr3:196828865:196828966:+|3pUTR|ENSG00000180370|msi1|total|mutant (ssRNA)
RNA: GGGAGUUCUACAGUCCGACGAUCUGCUCCUUUUGAGUUGCUUUUGCGUUUCUCAUGCCCCGGCAAGUGUAACCGAAAUUAUGCCGCUCCUUAUGUUGGCAAAGGAGCUCUAUACCGUUUCACUUUGUAUAAAAGUCCGGACCACAACAGAGGAUUGAGCAUCA
B11: ENSG00000198589:be:win_201|CDS|ENSG00000198589|bound_else_gene|NA|bound_elsewhere_windowed (ssRNA)
RNA: GGGAGUUCUACAGUCCGACGAUCAACUGUCUUUAACCUGUUGGUAGGAGGACAGUUUGAUCUGGAAAUGAAUUUCAUUAUCCAAGAAGGUGAGAGUAUUAACUGCAUGGUGGACCUACUGGAAAAAUGUGACAUUACGUGCCACAACAGAGGAUUGAGCAUCA
B12: chr8:122953881:122953982:+|CDS|ENSG00000178764|msi1|total|mutant (ssRNA)
RNA: GGGAGUUCUACAGUCCGACGAUCGAGUCGAGCGUUGUGGAUUACGUGGAGGUGACGGUCGGGGAGGAGGAUGCGAUCUCAGACCGAUCAGACCGCUGGAGUCAGGCUGCGGCAGAAGGUGUGUCGGAACUGGCUGAAUCAGACCAACAGAGGAUUGAGCAUCA
B13: chr15:65118290:65118391:-|3pUTR|ENSG00000090470|msi1|FALSE|unique (ssRNA)
RNA: GGGAGUUCUACAGUCCGACGAUCACUUCCUUGUGUGUUGAUGGGUAAGUACACUCAAACACUGAAUACAGGUGUGUGAUGGGUAGAUUUCACAGCCCUUCUACUAAUAGUGAGUGUGAAGGCAAGCUUGAUGCAAAACCUCCUCAACAGAGGAUUGAGCAUCA
B14: chr8:118923556:118924373:-|three_prime_utr|ENSG00000164761|control|control|control (ssRNA)
RNA: GGGAGUUCUACAGUCCGACGAUCACUAUAUUUUCCCUUAUUACUGCUUGCAGUAAUUCAACUGGAAAUUAAAAAAAAAAAACUAGACUCCAUUGUGCCUUACUAAAUAUGGGAAUGUCUAACUUAAAUAGCUUUGAGAUUUCACAACAGAGGAUUGAGCAUCA

biological target: MSI1 full-length (mouse, UniProt Q61474 1-362); assay: nsRBNS (natural sequence RNA bind-n-seq); RBNS binding buffer (assumed for nsRBNS): 25 mM Tris pH 7.5, 150 mM KCl, 3 mM MgCl2, 0.01% Triton X-100, 500 ug/ml BSA, 20 U/ml SUPERase-In, 4 C; UNK is unkempt and MSI1 is Musashi-1; names of the RNAs are library labels; protein concentration not given here; high values mean tight binding
Sequence of UniProt Q61474 (Q61474 whole entry): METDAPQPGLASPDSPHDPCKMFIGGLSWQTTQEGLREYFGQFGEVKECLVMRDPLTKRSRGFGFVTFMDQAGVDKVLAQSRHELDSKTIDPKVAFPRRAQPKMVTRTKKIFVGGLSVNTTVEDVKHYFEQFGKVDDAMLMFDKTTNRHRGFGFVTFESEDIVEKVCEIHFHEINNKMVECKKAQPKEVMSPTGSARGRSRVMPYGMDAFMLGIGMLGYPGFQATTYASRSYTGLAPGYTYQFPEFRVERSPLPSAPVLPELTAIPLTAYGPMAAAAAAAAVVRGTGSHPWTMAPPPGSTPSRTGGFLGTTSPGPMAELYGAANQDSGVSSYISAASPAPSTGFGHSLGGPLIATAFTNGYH

Q: Which binding signal does the source give for B1 here?
A: 2.36 enrichment R

Q: Which binding signal does the source give for B2 here?
A: 0.426 enrichment R

Q: How did the binding signal turn out when B3 was run?
A: 0.406 enrichment R

Q: With B4 as the binder, how does the binding signal read?
A: 0.435 enrichment R

Q: For B5, which binding signal is on record?
A: 0.484 enrichment R

Q: With B6 as the binder, how does the binding signal read?
A: 1.1 enrichment R

Q: For B7, which binding signal is on record?
A: 0.387 enrichment R

Q: How did the binding signal turn out when B8 was run?
A: 0.255 enrichment R

Q: B9 was tested. Which binding signal did it give?
A: 0.689 enrichment R

Q: Which binding signal does the source give for B10 here?
A: 0.459 enrichment R

Q: With B11 as the binder, how does the binding signal read?
A: 0.245 enrichment R

Q: Which binding signal does the source give for B12 here?
A: 0.588 enrichment R

Q: With B13 as the binder, how does the binding signal read?
A: 0.361 enrichment R

Q: With B14 as the binder, how does the binding signal read?
A: 0.729 enrichment R
